# According to paper PMC4336329 (PLoS ONE, 2015):
# The campaign covered roughly 310,000 compounds. About 14,000 (4.5%) showed an effect of 50% or more. Effects have a minus sign here. Some of the results follow.
# Biological target: human ether-à-go-go-related gene (hERG) potassium channel (human, UniProt Q12809)
# Assay: primary screen, population patch clamp on CHO cells stably expressing hERG
# 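Further: peak tail current of the secondary pulse compared with the same well before compound.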
# Sequence of human ether-à-go-go-related gene (hERG) potassium channel (Q12809 whole entry, looked up): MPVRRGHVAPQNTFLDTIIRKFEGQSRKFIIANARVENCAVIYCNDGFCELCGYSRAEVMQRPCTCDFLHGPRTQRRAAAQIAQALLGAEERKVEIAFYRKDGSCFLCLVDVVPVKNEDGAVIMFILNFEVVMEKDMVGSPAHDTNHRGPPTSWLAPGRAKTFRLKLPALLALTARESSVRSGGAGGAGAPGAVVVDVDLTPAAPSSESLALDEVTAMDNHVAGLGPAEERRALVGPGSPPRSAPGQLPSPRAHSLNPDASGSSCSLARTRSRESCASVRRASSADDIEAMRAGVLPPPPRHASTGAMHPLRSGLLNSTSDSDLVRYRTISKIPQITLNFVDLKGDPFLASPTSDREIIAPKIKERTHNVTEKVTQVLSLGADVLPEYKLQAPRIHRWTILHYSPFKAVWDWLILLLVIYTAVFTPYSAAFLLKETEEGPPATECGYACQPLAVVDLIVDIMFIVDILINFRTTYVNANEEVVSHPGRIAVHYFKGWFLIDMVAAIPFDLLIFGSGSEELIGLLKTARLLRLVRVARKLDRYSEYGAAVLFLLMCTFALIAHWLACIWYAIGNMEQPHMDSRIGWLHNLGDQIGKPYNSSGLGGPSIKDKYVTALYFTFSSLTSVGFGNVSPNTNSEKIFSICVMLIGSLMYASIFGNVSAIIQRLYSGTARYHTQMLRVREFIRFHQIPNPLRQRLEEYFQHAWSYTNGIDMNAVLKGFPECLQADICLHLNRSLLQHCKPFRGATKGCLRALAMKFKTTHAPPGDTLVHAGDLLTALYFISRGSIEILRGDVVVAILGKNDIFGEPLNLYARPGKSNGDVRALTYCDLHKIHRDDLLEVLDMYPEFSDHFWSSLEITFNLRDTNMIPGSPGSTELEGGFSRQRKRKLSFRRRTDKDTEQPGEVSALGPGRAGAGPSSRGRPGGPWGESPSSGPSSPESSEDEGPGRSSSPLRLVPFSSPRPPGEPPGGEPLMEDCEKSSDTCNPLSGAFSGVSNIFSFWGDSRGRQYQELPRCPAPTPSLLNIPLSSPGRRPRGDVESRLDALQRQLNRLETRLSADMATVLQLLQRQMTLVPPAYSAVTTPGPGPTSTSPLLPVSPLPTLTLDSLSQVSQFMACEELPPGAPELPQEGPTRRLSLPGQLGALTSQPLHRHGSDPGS
row,SMILES,"hERG current change (%, negative = inhibition) at 10uM"
1,COC(=O)Cc1ccc(OCc2ccc(Cl)nc2)cc1,-5.23%
2,COc1ccc(S(=O)(=O)NCc2ccc(C(=O)N(C)Cc3ccco3)cc2)cc1,-19.1%
3,CCCN=C1CC(C)(C)CC(=O)/C1=C(/O)CCCN1C(=O)c2ccccc2C1=O,-11.4%
4,O=C(Cn1c(CO)nc2ccccc21)NC1CCCCCC1,24.6%
5,Cc1nnsc1C(=O)N/N=C/c1ccc2ccccc2c1O,19.7%
6,Clc1cccc(CNCCc2ccc3c(c2)OCO3)c1.O=C(O)C(=O)O,-24%
7,Cn1cnnc1SCC(=O)NN(c1ccccc1)c1ccccc1,28.6%
8,COc1cccc(C(c2nnnn2CS(=O)(=O)c2ccc(C)cc2)N2CCN(C)CC2)c1OC (stereo not drawn),-22.5%
9,Cc1ccc(-c2cc(=O)c3cc(C)ccc3[nH]2)cc1,8.27%
10,COc1ccc(NS(=O)(=O)c2cc3c(cc2C)N(C(C)=O)CCO3)cc1OC,6.78%
11,Nc1cc(S(=O)(=O)Nc2ccc(Br)cc2)ccc1Cl,-4.84%
12,O=c1[nH]c(=O)n(C2CCCCC2)c(O)c1C=Nc1ccc(N2CCOCC2)cc1,-6.83%
13,Cc1c(C(=O)NCCN(C)C)oc2ccc(S(=O)(=O)N3CCC4(CC3)OCCO4)cc12,-1.46%
14,COc1ccc(C(CNC(=O)COc2ccc(F)cc2Cl)N2CCCCC2)cc1 (stereo not drawn),-8.7%
15,COc1ccc(-c2ccnc3ncnn23)cc1,-9.61%
16,COc1cccc(CN(CC(=O)NCC2CCCO2)C(=O)CCC(=O)Nc2cc(C)on2)c1 (stereo not drawn),-0.822%
17,CC(Sc1nnc(-c2cccnc2)o1)C(=O)NC1CCCC1 (stereo not drawn),-5.03%
18,COc1ccc(/C=C/C(=O)c2cc(F)ccc2OC(=O)c2ccccc2C)cc1OC,8.32%
19,CC(C)(C)C(=O)CCN1C(=O)C2(OCCO2)c2ccccc21,1.4%
20,CCC(=O)N1CCC2(CC1)Oc1ccc(Cl)cc1C(=O)C21CC(c2ccc(Cl)cc2)=NO1 (stereo not drawn),5.24%
21,CC(NC(=O)CS(=O)(=O)c1ccccc1)c1ccccc1 (stereo not drawn),13.5%
22,CCOC(=O)c1c(C)c(C(=O)NCc2ccccn2)c(C)n1C,-4.67%
23,CSc1nc(-c2ccc(Cl)cc2)nn1C(=O)c1ccco1,-2.97%

row,SMILES,"hERG current change (%, negative = inhibition) at 10uM"
1,C=CCNC(=O)CCNS(=O)(=O)c1ccc(Br)cc1,9.96%
2,Cc1cc2oc(C(=O)Nc3ccc(S(=O)(=O)Nc4onc(C)c4C)cc3)cc(=O)c2cc1Cl,24.6%
3,CCOC(=O)Cn1c(=O)oc2cc(S(=O)(=O)N3CCCC(C)C3)ccc21 (stereo not drawn),19.1%
4,COc1ccc(-c2nnc(SCC(=O)N3CCCCC3)o2)cc1,5.27%
5,CC(C)CCN(Cc1ccco1)S(=O)(=O)c1csc(C(N)=O)c1,-14.9%
6,COCc1nnc(NS(=O)(=O)c2ccccc2)s1,5.23%
7,Cc1onc(-c2c(Cl)cccc2Cl)c1NC(=O)NNc1c(Cl)cncc1Cl,-2.17%
8,O=c1c(Cl)c(N2CCOCC2)cnn1-c1ncc(C(F)(F)F)cc1Cl,5.44%
9,COc1ccc(OC)c(NC(=O)CSc2ccc3ccccc3c2)c1,-7.3%
10,Cc1ccc(S(=O)(=O)Nc2cccnc2)c(C)c1C,25.1%
11,COc1ccc(NC(C)=O)cc1S(=O)(=O)N1CCn2cccc2C1C (stereo not drawn),-2.68%
12,Cn1c(SCC(=O)NCc2cccs2)nnc1-c1ccco1,-11.3%
13,C/C(=N\NC(=O)C1COc2ccccc2O1)c1ccccn1 (stereo not drawn),4.32%
14,COc1ccc(NC(=O)C2C3CC/C=C\CCC32)cc1 (stereo not drawn),10.3%
15,O=C(N/N=C1\CCc2ccccc21)c1ccncc1,13.7%
16,CCn1c(SCC(=O)Nc2sc(C)c(C)c2C#N)nnc1C1CC1,-12%
17,CC1CCCN(c2nc3c(c(=O)n(C)c(=O)n3C)n2Cc2ccccc2)C1 (stereo not drawn),-40.9%
18,FC(F)(F)c1ccc(NCCc2ccccc2)nc1,9.41%
19,COc1ccc(OC)c(NC(=O)CCOc2cccc(C)c2)c1,-12.9%
20,CCOc1ccc2[nH]c(=O)c(CN(CC3COCCO3)C(=O)C3CC3)cc2c1 (stereo not drawn),11.3%
21,CC(=O)Oc1cccc(NC(=O)c2cccc(C(=O)Nc3cccc(OC(C)=O)c3)c2)c1,12.6%
22,COc1ccc2[nH]c(C)c(CCNC(=S)Nc3cccc(C)c3)c2c1,-1.02%
23,CCCCCCn1c(CN2CCN(Cc3ccccc3)CC2)nc2c1c(=O)n(C)c(=O)n2C,-71.8%

row,SMILES,"hERG current change (%, negative = inhibition) at 10uM"
1,COc1ccc(CN(C)C(=O)CNC(=O)c2cccs2)c(OC)c1,10.1%
2,CCOc1ccc(Oc2ccc(NC(=O)[C@@H](NC(N)=O)[C@@H](C)CC)cc2)cc1,8.6%
3,Cc1onc(NC(=O)c2ccc(Cl)cc2Cl)c1Br,2.61%
4,N#Cc1c(N)nc(-c2ccccc2)nc1-c1ccccc1,14.5%
5,Cc1ccc(S(=O)(=O)NCCCCCC(=O)Nc2nccs2)cc1,-8.3%
6,CC(Oc1ccc(-c2nccc(-c3ccccn3)n2)cc1)C(=O)NN (stereo not drawn),0.813%
7,Cc1ccc(C(=O)NNC(=S)NC(=O)c2ccco2)cc1,18.4%
8,O=C(Nc1ncc2c(n1)CC(c1ccco1)CC2=O)c1ccco1 (stereo not drawn),-13.9%
9,O=C(COC(=O)c1n[nH]c2ccccc12)c1cccc(Br)c1,16.1%
10,O=C(C1CC1)N1N=C(c2ccc(F)cc2)CC1(O)C(F)(F)F (stereo not drawn),5.65%
11,COc1ccc(OCC(=O)OCC(=O)NC2CCCCC2C)cc1 (stereo not drawn),2.29%
12,COc1ccc(C(=O)O)cc1S(=O)(=O)NCCCN1CCCC1=O,15.5%
13,NC(=O)CSCc1ccc(Br)cc1,-3.69%
14,COCCNc1cc(N)c([N+](=O)[O-])cc1[N+](=O)[O-],-31.7%
15,Cc1cc(C(F)(F)F)nn1C(=O)c1cccnc1Cl,-5.15%
16,C/C=C/c1ccc(OCC(=O)OCC)c(OC)c1,-26.9%
17,CCCCCC1CC(COc2ccccc2)OC1=O (stereo not drawn),0.285%
18,Cc1cc2c(cc1S(=O)(=O)N1CCc3ccccc31)NC(=O)CO2,-4.79%
19,COc1ccc(CCNC(=O)CCN2C(=O)c3ccccc3C2=O)cc1OC,-4.04%
20,CN(C1CC(C)(C)NC(C)(C)C1)S(=O)(=O)CC12CCC(CC1=O)C2(C)C.Cl (stereo not drawn),-7.38%
21,CC1CC(C)CN(Cc2nc(N)nc(Nc3ccccc3)n2)C1 (stereo not drawn),-64.8%
22,Cc1cc2cc(CN(Cc3ccc4c(c3)OCO4)C(=O)c3ccco3)c(=O)[nH]c2cc1C,-25%
23,CCOC(=O)/C(C#N)=C/C1=C(N2CCOCC2)CC(C)(C)OC1,-3.59%

row,SMILES,"hERG current change (%, negative = inhibition) at 10uM"
1,Cc1ccc(C(=O)NCCc2c[nH]c3ccccc23)c(C)c1,-19.3%
2,O=[N+]([O-])c1ccc(NCCN2CCOCC2)c([N+](=O)[O-])c1,-44.6%
3,O=C(CN1CCCC1)Nc1ccc(NC(=O)Nc2ccccc2)cc1,6.42%
4,COc1ccc(CCN2C(=O)NC(NC(C)=O)(C(F)(F)F)C2=O)cc1OC (stereo not drawn),7.51%
5,COc1cccc(OC)c1C(=O)Oc1ccc2c(c1)O/C(=C\c1ccncc1)C2=O,11%
6,COc1ccccc1C(=O)Nc1ccc2c(c1)nc(CCNC(=O)c1ccco1)n2C,6.59%
7,CC(C)c1ccc(/C=N/NC(=O)c2nnn(-c3nonc3N)c2CN2CCOCC2)cc1,-56.6%
8,CC1=C(C(=O)OCC2CCCO2)C(c2ccccc2)NC(=O)N1 (stereo not drawn),6.66%
9,CCCC(=O)N1CCN(c2ccc(NC(=O)c3ccccc3)cc2)CC1,1.37%
10,COCCNC(=O)C(=O)NNC(=O)COc1ccc(OC)cc1,13.7%
11,CC1CCCN(C(=O)C2CCN(S(=O)(=O)c3ccc4c(c3)CC(C)N4C(=O)C3CC3)CC2)C1 (stereo not drawn),-0.0258%
12,Cc1cccc(C)c1NC(=S)Nc1ccc(F)cc1,5.88%
13,Fc1cccc(F)c1CSc1nc2ccccc2[nH]1,-9.2%
14,Cc1cc(/C=C(\C#N)C(=O)O)c(C)n1C1CC1,-3.53%
15,CCOC(=O)c1c(NC(=O)C2CCCN(S(=O)(=O)c3ccc(C)cc3)C2)sc2c1CCCC2 (stereo not drawn),17.9%
16,CC1(c2nnc(-c3cccc(Cl)c3)o2)CC(c2ccc(F)cc2)=NO1 (stereo not drawn),-8.47%
17,O=S(=O)(c1ccc(Oc2ccc(Cl)cc2)c(S(=O)(=O)N2CCCCC2)c1)N1CCCCC1,-10.1%
18,Cc1cccc(-n2c(Cc3cc(=O)[nH]c(=O)[nH]3)nnc2SCC(=O)NCC2CCCO2)c1 (stereo not drawn),16.1%
19,CN(CC(=O)Nc1c(F)cccc1F)Cc1cccs1,29.9%
20,COc1ccccc1OCC(=O)NNC(=O)c1c(-c2ccccc2Cl)noc1C,16.8%
21,COc1ccc(-c2c(C#N)c(N)nc3c2CCC3)cc1,10.4%
